This is an account of results in PubChem BioAssay (NCI).

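Five compound concentrations were applied to cells in 96-well plates for 48 hours; endpoints were derived by simple linear interpolation of the resulting dose-response curve. At the GI50, growth is halved. TGI: total growth inhibition.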

The test deals with NCI-H322M lung. In words: NCI-60 cell line screen, 48 h.

Regarding `COC(=O)C[C@](O)(CCCC(C)(C)O)C(=O)O[C@H]1C(OC)=C[C@@]23CCCN2CCc2cc4c(cc2[C@@H]13)OCO4`, the GI50 was 4.63 µM and the TGI came to 22.9 µM.

As to `O=C1Nc2cc(-c3ccc(NS(=O)(=O)c4ccc(F)c(Cl)c4)cc3)ccc2/C1=C/c1ccc[nH]1`, the GI50 is 2.41 µM and the TGI worked out at 28.2 µM.
